Data on 45 compounds can be found in article PMC4336329 (PLoS ONE, 2015).

Each structure is given as a SMILES string. Among all 310,000 compounds or so, about 14,000 (4.5%) showed an effect of 50% or more. Effects have a minus sign here. The list shows a part of the results.
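Note: peak tail current of the secondary pulse compared with the same well before compound.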

human ether-à-go-go-related gene (hERG) potassium channel, sequence (Q12809 whole entry, looked up): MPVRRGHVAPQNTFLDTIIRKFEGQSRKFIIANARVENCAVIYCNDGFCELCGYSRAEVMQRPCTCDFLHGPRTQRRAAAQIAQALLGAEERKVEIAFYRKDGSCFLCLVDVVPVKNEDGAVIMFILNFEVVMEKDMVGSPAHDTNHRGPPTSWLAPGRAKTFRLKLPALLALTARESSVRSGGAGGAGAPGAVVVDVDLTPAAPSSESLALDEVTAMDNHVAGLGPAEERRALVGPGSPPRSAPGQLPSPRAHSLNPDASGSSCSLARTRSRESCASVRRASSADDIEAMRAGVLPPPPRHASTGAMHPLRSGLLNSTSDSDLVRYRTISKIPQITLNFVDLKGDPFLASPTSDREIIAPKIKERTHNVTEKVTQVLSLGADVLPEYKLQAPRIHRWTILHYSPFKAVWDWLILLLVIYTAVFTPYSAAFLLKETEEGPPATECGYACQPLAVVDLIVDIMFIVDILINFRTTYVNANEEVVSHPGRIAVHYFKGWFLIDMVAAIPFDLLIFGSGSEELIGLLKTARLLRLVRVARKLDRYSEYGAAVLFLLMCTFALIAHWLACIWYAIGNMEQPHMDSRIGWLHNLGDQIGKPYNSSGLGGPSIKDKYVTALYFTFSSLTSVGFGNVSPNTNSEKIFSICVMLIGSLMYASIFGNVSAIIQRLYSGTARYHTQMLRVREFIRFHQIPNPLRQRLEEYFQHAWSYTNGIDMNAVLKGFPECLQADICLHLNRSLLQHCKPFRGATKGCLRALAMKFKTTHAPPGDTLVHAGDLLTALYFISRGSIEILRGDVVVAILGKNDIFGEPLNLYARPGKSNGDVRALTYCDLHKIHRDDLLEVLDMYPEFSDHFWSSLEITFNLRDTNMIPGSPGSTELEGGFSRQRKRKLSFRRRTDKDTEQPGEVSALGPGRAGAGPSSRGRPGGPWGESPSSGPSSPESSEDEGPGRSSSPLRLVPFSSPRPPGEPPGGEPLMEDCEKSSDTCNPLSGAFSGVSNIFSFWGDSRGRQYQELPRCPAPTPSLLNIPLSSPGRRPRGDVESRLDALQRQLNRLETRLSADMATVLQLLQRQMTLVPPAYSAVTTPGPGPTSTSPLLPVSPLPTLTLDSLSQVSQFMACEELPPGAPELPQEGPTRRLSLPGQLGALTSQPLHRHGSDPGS

The test concerns the target human ether-à-go-go-related gene (hERG) potassium channel (human, UniProt Q12809). Put plainly: primary screen, population patch clamp on CHO cells stably expressing hERG.
`O=C(CCN1C(=O)COc2ccccc21)N1CCN(c2ccccn2)CC1`: the “hERG current change (%, negative = inhibition) at 10uM” value is on record as -69.3%.

Take `CCn1c(C)nc([N+](=O)[O-])c1Sc1ccc(F)cc1`: the “hERG current change (%, negative = inhibition) at 10uM” value amounted to 2.98%.

Regarding `CC1(C)Cc2nc(N)c(=O)sc2C1`, the “hERG current change (%, negative = inhibition) at 10uM” value is given as 20.5%.

As for `CC(=O)n1ccnc1`, the “hERG current change (%, negative = inhibition) at 10uM” value came out at 16.2%.

In the case of `CC(=O)c1cc(-c2ccccc2)n(CC(=O)Nc2ccc(C)c(C)c2)c1C`, the “hERG current change (%, negative = inhibition) at 10uM” value came to 33.2%.

In the case of `CC(=O)c1cnc(-c2cccc(Cl)c2)s1`, the “hERG current change (%, negative = inhibition) at 10uM” value is 14.9%.

For the compound `CC1CCN(C(=S)c2cn(Cc3ccccc3F)c3ccccc23)CC1`, the “hERG current change (%, negative = inhibition) at 10uM” value is 14.1%.

With `CCOC(=O)C1C(c2cc(OC)c(OC)c(OC)c2)NC(=S)NC1(O)C(F)(F)F` (stereo not drawn), the “hERG current change (%, negative = inhibition) at 10uM” value is listed as -0.79%.

As for `Cc1cc(C)c(-c2csc(NC(=O)C3=NN(c4ccccc4)C(=O)CC3)n2)c(C)c1`, the “hERG current change (%, negative = inhibition) at 10uM” value is given as -10.4%.

For the compound `CC(C)(C)NC(=O)c1cccc2c1-c1ccccc1C2=O`, the “hERG current change (%, negative = inhibition) at 10uM” value was found to be 10.7%.

As for `CCC(C)N1CC(=O)N2Cc3[nH]c4ccccc4c3C[C@H]2C1=O` (stereo partly drawn), the “hERG current change (%, negative = inhibition) at 10uM” value is recorded as 15%.

Consider `CC(C)C(c1nnnn1Cc1ccccc1)N1CCN(Cc2ccco2)CC1.Cl` (stereo not drawn), for which the “hERG current change (%, negative = inhibition) at 10uM” value is -32.1%.

`Cc1c(/N=C/c2ccco2)n(Cc2ccccc2)c2ccccc12`: the “hERG current change (%, negative = inhibition) at 10uM” value is 10.9%.

Consider `CCOc1ccc(NC(=O)CSc2nc(C)cc(C)n2)cc1`, for which the “hERG current change (%, negative = inhibition) at 10uM” value amounted to 7.68%.

With `CCOC(=O)C1=C(N)Oc2c(oc(CO)cc2=O)C1c1ccc(F)cc1` (stereo not drawn), the “hERG current change (%, negative = inhibition) at 10uM” value is reported as -14.6%.

Consider `CC(C)Cc1nc2sc3c(NCc4ccco4)ncnc3c2c2c1COC(C)(C)C2`, for which the “hERG current change (%, negative = inhibition) at 10uM” value was -5.32%.

For the compound `O=C(NCCN1CCOCC1)c1ccc2c(c1)N(Cc1ccc(Cl)cc1)C(=O)CS2`, the “hERG current change (%, negative = inhibition) at 10uM” value is on record as -19.7%.

`CCOC(=O)CSc1nnc2n1C(C)(C)Cc1ccccc1-2`: the “hERG current change (%, negative = inhibition) at 10uM” value is given as -4.66%.

With `Cc1ccc2nc3c(cc(C(=O)NCc4ccco4)c(=N)n3C3CCCC3)c(=O)n2c1`, the “hERG current change (%, negative = inhibition) at 10uM” value is -75.8%.

For the compound `COc1ccccc1NC(=O)COc1ccccc1C(=O)c1cnn(-c2ccccc2)c1`, the “hERG current change (%, negative = inhibition) at 10uM” value was -32.7%.

Consider `Cc1cccc(C)c1Nc1nnc(SCc2nc3ccccc3c(=O)[nH]2)s1`, for which the “hERG current change (%, negative = inhibition) at 10uM” value is -2.6%.

Turning to `CCc1c(C(C)=O)oc2ccc3c(C)cc(=O)oc3c12`, the “hERG current change (%, negative = inhibition) at 10uM” value is on record as 2.57%.

With `Cc1ccc(/C=c2\sc3nc(-c4ccccc4Br)nn3c2=O)o1`, the “hERG current change (%, negative = inhibition) at 10uM” value is -7.13%.

`O=C(CCCl)Nc1nc2c(s1)CCc1ccccc1-2`: the “hERG current change (%, negative = inhibition) at 10uM” value was 15.9%.

On to `CCCCNC(=O)Nc1ccc(C(O)(C(=O)OCC)C(F)(F)F)cc1` (stereo not drawn), for which the “hERG current change (%, negative = inhibition) at 10uM” value is on record as -2.09%.

With `COc1ccc(COC(=O)C2=C(C)NC(=O)NC2c2cc(Br)c(O)c(OC)c2)cc1` (stereo not drawn), the “hERG current change (%, negative = inhibition) at 10uM” value worked out at 1.73%.

As to `Cc1ccccc1CSc1[nH]c(=O)ncc1C`, the “hERG current change (%, negative = inhibition) at 10uM” value is 12.3%.

`O=C(NCc1ccc2c(c1)OCO2)C1CC(c2ccc(Cl)cc2)=NO1` (stereo not drawn): the “hERG current change (%, negative = inhibition) at 10uM” value is recorded as -3.96%.

For the compound `COC(=O)c1ccc(C(=O)OC)c(NC(=O)CN(C)Cc2ccccc2)c1`, the “hERG current change (%, negative = inhibition) at 10uM” value was -19.8%.

Consider `CCOC(CNC(=O)c1ccc2c(c1)nc(C)n2-c1cccc(F)c1)OCC`, for which the “hERG current change (%, negative = inhibition) at 10uM” value was -1.42%.

As for `Nc1ccc(O)c2c(=O)cc(-c3ccccc3Cl)oc12`, the “hERG current change (%, negative = inhibition) at 10uM” value is 9.05%.

In the case of `Cc1ccc(NC(=O)N(Cc2ccc3c(c2)OCO3)Cc2cc3cc4c(cc3[nH]c2=O)OCCO4)cc1`, the “hERG current change (%, negative = inhibition) at 10uM” value is 15.5%.

Consider `O=C(O)CCN1C(=O)/C(=C\c2ccncc2)SC1=S`, for which the “hERG current change (%, negative = inhibition) at 10uM” value is on record as 17.4%.

On to `COc1ccc(CC(NC(C)=O)C(=O)NC2CCN(C(=O)c3ccncc3)CC2)cc1OC` (stereo not drawn), for which the “hERG current change (%, negative = inhibition) at 10uM” value turned out to be 6.44%.

On to `Cc1cc(OCC(=O)NC(C)C)cc(C)c1Br`, for which the “hERG current change (%, negative = inhibition) at 10uM” value is -4.16%.

Consider `Cc1cc(C(=O)COc2ccc(-c3nnco3)cc2)c(C)n1Cc1ccccc1`, for which the “hERG current change (%, negative = inhibition) at 10uM” value is given as -8.18%.

In the case of `COc1c(CC=C(C)C)cc(C2CC(=O)c3c(O)cc(O)cc3O2)cc1CC=C(C)C` (stereo not drawn), the “hERG current change (%, negative = inhibition) at 10uM” value is 3.16%.

For `COc1ccc(/C=N/NC(=O)c2cc(-c3ccc(C)cc3C)nc3ccccc23)cc1COC(C)=O`, the “hERG current change (%, negative = inhibition) at 10uM” value is listed as 20%.

Take `Cc1nnc(NC(=O)CSc2nc(C3CCCCC3)nc3ccccc23)s1`: the “hERG current change (%, negative = inhibition) at 10uM” value was 17.3%.

For `Cc1cc(=O)[nH]c(Nc2ccc(Cl)cc2)n1`, the “hERG current change (%, negative = inhibition) at 10uM” value is listed as 15%.

For the compound `COc1cc(/C=C2\SC(=S)N(C(C(=O)O)c3ccccc3)C2=O)ccc1O` (stereo not drawn), the “hERG current change (%, negative = inhibition) at 10uM” value was -6.14%.

Turning to `Cc1ccc(NC2=NC3(CCCCC3)N=C(N)N2)c(C)c1`, the “hERG current change (%, negative = inhibition) at 10uM” value was 4.38%.

With `Cc1ccc(F)cc1NC(=O)C1C2CCC(O2)C1C(=O)O` (stereo not drawn), the “hERG current change (%, negative = inhibition) at 10uM” value turned out to be 15.5%.

With `Cc1ccc(C)c(-n2c(SCC(=O)O)nc3sc4c(c3c2=O)CCCC4)c1`, the “hERG current change (%, negative = inhibition) at 10uM” value is 19.1%.

For the compound `Cc1cccc(NC2=CC(=O)OC(C)C2)c1` (stereo not drawn), the “hERG current change (%, negative = inhibition) at 10uM” value is on record as 5.47%.
